This is one part of the list.
tested on: T1, C. trachomatis L2/434/Bu expressing GFP (CTL2-GFP); set-up: species or system HeLa; C. trachomatis total inclusion area by high-content imaging, normalised to DMSO; conditions: total inclusion area; 28.5 h, 10 µM; inhibitor
T1 construct: L2/434/Bu GFP intracellular growth in HeLa cells
Method in brief: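 After bulk GFP and resorufin fluorescence reads, cells were fixed, stained with Hoechst and imaged by high-content microscopy. Inclusion area and number (GFP) stood in for chlamydial growth, nuclei count (Hoechst) for host cell viability. MICs were derived as for the bulk readout.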

SMILES	% of control remaining
OCCN(Cc1cccnc1)Cc1cccn1-c1cccc(F)c1 [CBK283018]	112.714
CS(=O)(=O)c1nsc(Cl)n1 [CBK007229]	70.2036
Cc1ccc(C(=O)CN2CCC3(CC2)CC(=O)c2cc(Br)ccc2O3)cc1 [CBK162266]	90.7067
O=c1[nH]c2cccc(O)c2o1 [CBK048613]	30.3278
O=S(=O)(Nc1cccc(Cl)c1)c1ccc(Cl)c(Cl)c1 [CBK044636]	80.1043
Cn1nc([N+](=O)[O-])nc1Sc1nnnn1-c1ccc(C(=O)O)cc1 [CBK266961]	92.1081
COc1ccccc1/C=C/CN1CCNC(=O)C1CC(=O)O (stereo not shown) [CBK269845]	106.9
COc1ccc(CN2CCN(S(=O)(=O)c3ccc(Cl)cc3)CC2)cc1OC [CBK264204G]	89.1529
CN(C)c1ncnc2[nH]ncc12 [CBK016810]	75.0082
CCN1CC2(CCN(CCCC#N)CC2)c2ccccc21 [CBK136995]	105.054
COC(=O)[C@@H]1CN(C(=O)Nc2ccccc2)CCN1C(=O)C1CCCCC1 [CBK289607]	86.5657
CC(C)n1c(=O)n(CC(=O)N(C)C2CCCCC2)c2cccnc21 [CBK283695]	82.7021
COc1cccc2c3c([nH]c12)C1(CCN(CCCC#N)CC1)N(C(C)=O)CC3 [CBK039722]	87.503
CC(C)[C@@H](CO)Nc1cc(-c2cccc(Br)c2)nc2ccnn12 [CBK037117]	151.095
O=C(Nc1ccc(-c2nc3ccccc3o2)c(O)c1)c1ccc(-c2cccc(Cl)c2)o1 [CBK263422]	94.6575
O=C(Nc1c(F)cccc1F)N(Cc1cc(F)cc(F)c1)CC1CCNCC1 [CBK049795]	43.234
COc1ccc2c(c1)cc(C(=O)N1CCCn3cncc3C1)n2C [CBK306516]	74.2926
CC1CCCN(c2ccc(NC(=O)c3cccs3)cc2[N+](=O)[O-])C1 (stereo not shown) [CBK266402]	89.7329
CCc1noc(CN2CCCC(c3ccc(C(=O)O)cc3)C2)n1 (stereo not shown) [CBK307102]	61.3667
Cc1cc(NC(=O)Nc2cccc(Cl)c2C)no1 [CBK288245]	82.6867
CCn1c(C2CCN(C(=O)c3ccc(C)c(Cl)c3)CC2)nn(C)c1=O [CBK307280]	70.3289

SMILES	% of control remaining
CN(C)c1cccc2c(S(=O)(=O)n3c(=O)n(CCc4c[nH]c5ccccc45)c4ccccc43)cccc12 [CBK106511]	88.2592
Cc1ccc(CN(CCCN2CCOCC2)Cc2ccoc2)o1 [CBK283234]	90.9667
O=[N+]([O-])c1nn(-c2ccc(Cl)cc2)[n+]([O-])c1NCc1ccccn1 [CBK268270]	64.2893
C#CCn1nnc2ccccc21 [CBK028164]	92.7175
COc1ccc(CCCC(=O)Nc2cc(N3CCNCC3)ncn2)cc1OC [CBK107856]	91.5598
CC1(C)[C@H]2CC/C(=N/O)[C@]1(C)NC2=O [CBK006513]	35.3996
Cc1ccc(N2CCN(S(=O)(=O)c3ccc(I)cc3)CC2)c(C)c1 [CBK098562]	94.2994
O=C(Nc1ccccc1C(=O)NCc1ccccc1)c1cccc(F)c1 [CBK269351]	102.069
CC(C)Cc1csc2nc(-c3ccc(Br)cc3)oc(=O)c12 [CBK026692]	95.1742
CNC(=O)c1sc2ccccc2c1C1CCN(S(=O)(=O)c2ccc(C)c(C)c2)C1 (stereo not shown) [CBK285877]	92.5142
O=C(O)CCn1cc(/C=C2\SC(=S)NC2=O)c(-c2cccc(Br)c2)n1 [CBK265287]	104.262
NC(=O)Cn1cc(CNC2(c3ccccc3)CC2)c2ccccc21 [CBK282776]	78.9882
CCOC(=O)c1cc(-c2ccc(OC)cc2)nn1-c1ccc(C(=O)O)cc1 [CBK296133]	71.2028
O=C1Nc2ccc(C(=O)NCC(O)CO)cc2/C1=C/c1c[nH]c2ncccc12 (stereo not shown) [CBK115363C]	64.3083
Cc1cc(C)nc(N2CCC(c3cc(CCOc4ccc(C(F)(F)F)cc4)[nH]n3)C2)n1 (stereo not shown) [CBK286073]	84.1631
CC(NC(=O)Nc1ccccc1O)(C(F)(F)F)C(F)(F)F [CBK268019]	78.6408
CCOc1cccc(CNc2nn[nH]n2)c1OCc1ccc(C)cc1 [CBK288127]	101.462
CN(C)Cc1ccccc1Cn1cncc1-c1cnn(C)c1 [CBK281764]	90.259
Nc1nonc1-c1nc2ccccc2o1 [CBK009829]	51.0422
Cc1nn(Cc2c(F)cccc2Cl)c(C)c1NC(=O)c1cnn2c(C(F)F)cc(-c3ccccc3)nc12 [CBK267634]	81.9764
O=C(CCCc1ccccc1)Nc1ccc(F)cc1[N+](=O)[O-] [CBK265446]	81.2146

SMILES	% of control remaining
COc1cc(NC(=O)Nc2ccccc2OC)c(OC)cc1Cl [CBK270329]	82.1173
O=C(NC(Cc1cccs1)c1nccs1)c1cccnc1 (stereo not shown) [CBK285133]	75.8392
Cc1ccc(-c2csc3c(=O)[nH]c(N4CCCC(C(=O)NCc5cccnc5)C4)nc23)cc1 (stereo not shown) [CBK215546]	127.024
CN(C(=O)CN)c1nc2c(s1)CC(c1ccccc1)CC2 (stereo not shown) [CBK304298C]	59.5674
O=C1NC(=O)C(c2ccccc2)(c2ccccn2)N1 (stereo not shown) [CBK288455]	73.4838
N/C(=N\O)c1ccc(OC(F)(F)F)cc1 [CBK019865]	81.431
O=C(O)COCc1cc(-c2ccc3c(c2)OCO3)on1 [CBK286883]	124.236
CCN1CCc2cc(-c3cncn3CCCn3nc(C)cc3C)ccc21 [CBK281572]	102.233
O=C(Nc1cccc(OC(=O)c2cc(S(=O)(=O)N3CCCCC3)ccc2Cl)c1)c1ccco1 [CBK262186]	38.6739
NC(=O)c1ccccc1NC(=S)NC(=O)c1cc2ccccc2o1 [CBK265633]	110.975
CCOc1ccc2nc(NS(=O)(=O)c3cccc(C(=O)O)c3)sc2c1 [CBK161137]	83.7009
Cc1cc(C)c2c(c1)cc(C)c1nn(CC(=O)NC3CC3)c(=O)n12 [CBK283877]	74.8142
CCCNC(=O)Cn1cnc2sc(C(=O)Nc3ccccc3OC)c(C)c2c1=O [CBK071910]	118.46
CC1(C)Cc2cccc(OCC(=O)O)c2O1 [CBK270161]	109.259
COc1ccccc1NC(=O)COc1ccc(C)cc1[N+](=O)[O-] [CBK269724]	67.0553
O=C(Cc1ccc(F)cc1)Nc1nc(-c2cccs2)cs1 [CBK287736]	83.0434
COc1cc(NS(=O)(=O)c2ccc(Nc3nc(-c4sc(N)nc4C)cs3)cc2)nc(OC)n1 [CBK262796]	42.6689
COc1cccc(CN[C@@H]2CCC[C@H]2Cc2cc(C)no2)c1 [CBK283006]	85.9072
CC1(C)CC(=O)C=C(C(=O)NCc2c(F)cccc2F)O1 [CBK153287]	102.061
Cc1nn(CCC(=O)NC(c2ccccc2)c2cccnc2)c(C)c1C (stereo not shown) [CBK282547]	89.4945
N#Cc1ccc(CN2C[C@@H]3OCC(=O)N[C@@H]3C2)cc1 [CBK289261]	116.4

SMILES	% of control remaining
O=C(OCC#CCSc1nnc(-c2ccccc2)o1)c1ccc([N+](=O)[O-])cc1 [CBK265588]	114.104
CCN(Cc1ccncc1)C(=O)NCCCN1CCN(C)CC1 [CBK155123]	86.6795
Fc1ccc(-c2cn(-c3ccc4c(c3)CCO4)nn2)cc1 [CBK113132]	57.8078
NS(=O)(=O)c1ccc(CCNCc2ccc3c(c2)OCO3)cc1 [CBK269819C]	75.2877
Cc1ccccc1Nc1nc(-c2ccc([N+](=O)[O-])cc2)nc2ccccc12 [CBK264803]	109.338
O=C(NCCc1c[nH]c2ccccc12)c1cccs1 [CBK231038]	88.8984
Cc1csc(C(Cc2ccsc2)NC(=O)Cn2cccn2)n1 (stereo not shown) [CBK282831]	100.919
CC(C)NC(=O)C1CCN(c2nc3ccccc3n2C)CC1 [CBK283986]	101.763
Cc1ncn(Cc2nc(-c3ccsc3)no2)c(=O)c1C [CBK304158]	42.259
S=C(NCCN1CCCCC1)NCc1ccccc1 [CBK263066]	76.9217
NCc1ccc(CN(Cc2cccc(Cl)c2)C(=O)NC(c2ccccc2)c2ccccc2)cc1 [CBK046087C]	55.3283
COc1cccc(OCC(=O)Nc2ccc(Cl)cc2C(=O)O)c1 [CBK264208]	121.617
CCN(CC(=O)N1CCN(Cc2ccc3c(c2)OCO3)CC1)S(=O)(=O)c1ccccc1 [CBK269436]	63.8059
O=C(Nc1cc(N2CCCS2(=O)=O)ccc1F)c1cccnc1O [CBK306320]	97.8132
O=C1CCCN1c1ccc(S(=O)(=O)N2CCN(c3ccccn3)CC2)cc1 [CBK268237]	121.087
CC(C)(C)c1ccc(-c2nc(O)c(CC(=O)O)s2)cc1 [CBK067734]	98.0934
CCCOC1CCCN(C(=O)c2ccc(-c3ccc(Cl)cn3)cc2)C1 (stereo not shown) [CBK306540]	67.0931
CCCc1cc(CNC(=O)c2cc(C3CC3)nn2C)on1 [CBK282048]	81.4265
O=C1OCC(O)=C1C(c1ccccc1)C1CC1 (stereo not shown) [CBK010731]	60.8117
